Drawing on publication PMC12136788, this text covers binding signal for 22 molecules.

The list shows a part of the results.

The chains are these.
T1: UNK ZnF1-3 (human, UniProt Q9C0B0 31-174)
T1 sequence: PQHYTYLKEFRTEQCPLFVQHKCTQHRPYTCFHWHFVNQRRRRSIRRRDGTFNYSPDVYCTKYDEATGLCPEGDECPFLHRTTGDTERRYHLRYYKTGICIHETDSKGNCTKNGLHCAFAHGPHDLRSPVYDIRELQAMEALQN

B1: chr3:127788656:127788657:+_ENSG00000058262_ENST00000243253|hu_hu|FALSE|FALSE (ssRNA)
RNA: GGGAGUUCUACAGUCCGACGAUCCACUUUCACAGUUCUUUUUGCCAGUGCCAGGAUAAAAAGCAAAAUUUUAAAUUGGAAAAUGUCUAGCACUUUACACAGUGGAAUGAAAGAAUACGAAAUUCAAAAACAUUAUUAAAAGUCCAACAGAGGAUUGAGCAUCA
B2: chr7:34935884:34935885:-_ENSMUSG00000052997_ENSMUST00000102746|mus_mus|motif|central (ssRNA)
RNA: GGGAGUUCUACAGUCCGACGAUCUAAAAUCUUUAAUCCUUCCAACACUAUCAAGCCGGCGAUCACUGCAUUAGUAGUAGCGGUAGCAGGAAUGAUAUUCCCUGCCAUUGAUUUUAUAUCAAACCUGCUCUUCAUAUUCAUGCUCAACAGAGGAUUGAGCAUCA
B3: chr6:75965845:75965846:-_ENSG00000112697_ENST00000230461|hu_hu|FALSE|FALSE (ssRNA)
RNA: GGGAGUUCUACAGUCCGACGAUCAUUUGCUUUCAUAAUAUAAAAUUAAAUGGUAAUGUCAGCUGUAUUACUACUGUUUCUAUAUUUAUGAUUAAUUACUAGCAGUACAACUCCCAGAAGGAAGGAGAUGGAUCCAACAGCGAUCAACAGAGGAUUGAGCAUCA
B4: chr8:11781157:11781158:+_ENSMUSG00000031511_ENSMUST00000110909|mus_mus|FALSE|FALSE (ssRNA)
RNA: GGGAGUUCUACAGUCCGACGAUCCAAGGAGCUGAGGACCUUGUUAAAGUUCUGCCCCUGAUACAAAUCAUUUGCAUCAAAAGUCUCUAGGCGCAGGGACGCCCCGCAGGCGCGCAGGAACUCGCGGAUGUUGCUCAGGCACUCCAACAGAGGAUUGAGCAUCA
B5: 65321744_65321864_161_3pUTR_ENSG00000103707_ENST00000220058|human|control|control (ssRNA)
RNA: GGGAGUUCUACAGUCCGACGAUCGGCGGCGUGCAGCGCCCGCAGCGCCUCGCGGGCGAACUGGUCCGUGCCGAAGAAGAGCACCCGCCAGGGAGGCUUCUCGCGGACUCUGGAGUCCCGGCAGUCCUCCCAGCCGAGUCGGGCCAACAGAGGAUUGAGCAUCA
B6: chr4:148551591:148551592:-_ENSMUSG00000063077_ENSMUST00000060537|mus_hu|mus_mus_mus_hu_False|1_108 (ssRNA)
RNA: GGGAGUUCUACAGUCCGACGAUCACCUUACAAAAUUAAAUAUCCCUGUAAAUUAGACAAUAAGCAGCAGGCAACAAAGUCUUUGCUUUGGAAUAUGUGCCAGGAAAAGUCAUCUUGUUUUUAGAUCUCAAGAGACACAACCAUCAACAGAGGAUUGAGCAUCA
B7: chr1:175956164:175956165:-_ENSG00000143207_ENST00000367666|hu_mus|FALSE|FALSE (ssRNA)
RNA: GGGAGUUCUACAGUCCGACGAUCAGCAGCAAUCAGCACAUUGGACUCCCCGUCUGAUAGUGCCCGCCAACACACAGCACUGACAAAUUCAUUUGUGUCAUCUUCUUUCCGAUCUUUGUCUAAUACACUCUUAACGGUAUCAAACAACAGAGGAUUGAGCAUCA
B8: chr6:114281168:114281169:-_ENSG00000196591_ENST00000368632|hu_hu|hu_hu_hu_mus_True|1_68 (ssRNA)
RNA: GGGAGUUCUACAGUCCGACGAUCUUCCAUUUUUCGGUAUAAACCAUAAUUUAGCAGCAAGUUAUGAGUCAUGCGGAUUCUAUGAGGCUUCAUGGGAUGACCCUGGCCAUAAUAAUAAUUGCCAAUAUCACCAUCAUACUAGAACAACAGAGGAUUGAGCAUCA
B9: 33132165_33136767_899_CDS_ENSMUSG00000028277_ENSMUST00000124992|mouse|control|control (ssRNA)
RNA: GGGAGUUCUACAGUCCGACGAUCUCUCUGACUCUGUUGCUGGGCUCUGCGCUGCCGAGGGCUCAUGGAGGUAUUCUUAGGAGCUGGCUGGGUAGGUUGUGGCAAGGGUGCUCCUGAUGGAUUCUGGGCGCCAUACGAUGUGCUCAACAGAGGAUUGAGCAUCA
B10: chr17:66468409:66468410:+_ENSMUSG00000024101_ENSMUST00000116556|mus_mus|FALSE|FALSE (ssRNA)
RNA: GGGAGUUCUACAGUCCGACGAUCUGGGAUGGAGUCUGACAUUCGAGAGAAGGCUCCUCCAGGUCCCUCACUGGUUCCAGUGCUAGGUCCCUUUCCAGAGAUACCUUUGCGCCUCAUGACAAGUUUGUUGAAGAGAUCUGACAUCAACAGAGGAUUGAGCAUCA
B11: 150667170_150667290_129_CDS_ENSG00000143457_ENST00000271732|human|control|control (ssRNA)
RNA: GGGAGUUCUACAGUCCGACGAUCAAGAGUAAGGCGGAUAUCCUUAGAGUCUCCAGAAUCUUCAUUGUCUGGACUUUUCUCCCAAUUACUGUCUUCCUCACUUUCCAUCUUCUUUUCAGAGUUCUUGCUUAUUUCAGUGCGACGCAACAGAGGAUUGAGCAUCA
B12: chr2:183792894:183792895:-_ENSG00000061676_ENST00000360982|hu_mus|FALSE|FALSE (ssRNA)
RNA: GGGAGUUCUACAGUCCGACGAUCUGCAAGCGCCAGGAAUUCCUUAAGUCGGUCUUCAAUACUUCCUUUGUGAAUUGUAAACAAAGCUGCAGCAAUCUGGUUGAUGGCUUUGGCCAAACAAUGUAUAUUGUUGCAGUGUCCUUCCAACAGAGGAUUGAGCAUCA
B13: chr17:35975056:35975057:-_ENSMUSG00000001525_ENSMUST00000001566|mus_mus|FALSE|FALSE (ssRNA)
RNA: GGGAGUUCUACAGUCCGACGAUCCUACGGUUUACUGAAAUAAUUGUUUUUGAUGGUUCCAAUGUAGGUACCGAACAAGAAAGAAAAUUAAGGUUUUUGGGGUUUUUUUCUUCUGGGCCGGUCUCAGACUGAAAGGAUGGACCGCAACAGAGGAUUGAGCAUCA
B14: chr11:48615247:48615248:+_ENSMUSG00000020372_ENSMUST00000020640|perfect_dup|FALSE|FALSE (ssRNA)
RNA: GGGAGUUCUACAGUCCGACGAUCUCCAUCCCAGGAGCCUGAGAGGGCAAACUGGCCAUCUGAGGAGAUAACCACAUCACUAACAAAGUGGGAGUGACCCCGCAGAGCACGCUGUGGAAUUCCAUAGUUGGUCUCAUCCCUGGUCAACAGAGGAUUGAGCAUCA
B15: chr9:21333030:21333031:-_ENSG00000198642_ENST00000537938|hu_hu|FALSE|FALSE (ssRNA)
RNA: GGGAGUUCUACAGUCCGACGAUCAAGGGGAAGUAUUAGAUCACCCAUGACGUACUGCAAAGGUGUUACACCUUAGACCUAAGAAUGAUCUGAAGGUGCUGAAAGAGGUGAUUCUCUAGAAGGUGACCCAGGGUUUUCUUCAGGCAACAGAGGAUUGAGCAUCA
B16: chr17:55916980:55916981:-_ENSG00000181610_ENST00000313608|hu_hu|motif|central (ssRNA)
RNA: GGGAGUUCUACAGUCCGACGAUCUCACAUAACUGCUUCUGUCAAACCAUGAUACUGAGCUUUGUGACAACCCAGAAAUAACGGAGAGAAGGCAAACAUAAUACCUUAGAGAUCAAGAAACAUUUACACAGUUCAACUGUUUAACAACAGAGGAUUGAGCAUCA
B17: chr5:37680062:37680063:+_ENSMUSG00000029121_ENSMUST00000031004|mus_hu|mus_mus_mus_hu_False|18_38 (ssRNA)
RNA: GGGAGUUCUACAGUCCGACGAUCUUUGGGUGUAGCUGGUACCUCGUACACAGGACCGUCAUACAUGCCCCUGGAAACCCCUUGCAAUCCAAAAACCUUGCUUCUGAUUUUGACGCGCUGGUAGAGAUGCUCCGGGAACGCCUUCAACAGAGGAUUGAGCAUCA
B18: chr7:65705475:65705476:+_ENSG00000169902_ENST00000304842|hu_hu|hu_hu_hu_mus_True|48_108 (ssRNA)
RNA: GGGAGUUCUACAGUCCGACGAUCUCUAUCCGGUGAUGGCACUCCAUGGCAUGCUGGCCCAGGUAAAACACGGUCACAGAACUAAUCACCAGACAUGCCAAGAGUAAGUUCUGCUUCAGCUUCCCAACCAUCUUGAUGUGGUUACAACAGAGGAUUGAGCAUCA
B19: chr1:39494447:39494448:+_ENSG00000168653_ENST00000372967|hu_mus|hu_hu_hu_mus_False|58_58 (ssRNA)
RNA: GGGAGUUCUACAGUCCGACGAUCGCACCGAGCGGCGUUCUUAUAGGGCUGUUCUGCGCUUAGGAACAUAAAGUGCCGAUCUAUGUUGAUGCCCAGCUUUUUCUGUAUGUCAAGGAAAGGCAUGGCUCUGCAGUGCCCUUGUCACAACAGAGGAUUGAGCAUCA
B20: chr4:141471443:141471444:+_ENSG00000179387_ENST00000323570|hu_hu|motif|central (ssRNA)
RNA: GGGAGUUCUACAGUCCGACGAUCAAGUGCUACAUUACAAUCCAGUAAAAGUCCUUUAAUCUUUUCAUGAAACUUCUCUCGGUACAAAUUGAAAUACAUAAUGCUUUCUGGUUCUUCUUCAAACCAAAACUUGUCAAAUUCAUACAACAGAGGAUUGAGCAUCA
B21: chr14:78183846:78183847:+_ENSG00000119705_ENST00000557342|hu_hu|hu_hu_hu_mus_False|8_68 (ssRNA)
RNA: GGGAGUUCUACAGUCCGACGAUCUCUCAGAAAUCUUUCUUCAUCAGAUGUUUGAGCUCCGUGCAAAAGUUUUGGCCUUUGAGCUUGAACGUGGAUCUAUGGGAGGGAAAGCACUGUCAGAAAAGGUUGUAGUGCAUUUAAAGACAACAGAGGAUUGAGCAUCA
B22: chr11:77336104:77336105:-_ENSG00000074201_ENST00000525064|hu_mus|hu_hu_hu_mus_False|58_58 (ssRNA)
RNA: GGGAGUUCUACAGUCCGACGAUCCUCACACAUUGCUGUGAACAUCGCCUCCAAUGCUGACUUAUCACUGGGCACAAAUCUAAAUUCAGAAAUGGGUUCAACAUCAUCAUUGUCUUCCUCAUCUUCAUCAGAGAGAGGUUCUUUCAACAGAGGAUUGAGCAUCA

This test has as its target T1, UNK ZnF1-3. The test is described as follows: nsRBNS (natural sequence RNA bind-n-seq); RBNS binding buffer (assumed for nsRBNS): 25 mM Tris pH 7.5, 150 mM KCl, 3 mM MgCl2, 0.01% Triton X-100, 500 ug/ml BSA, 20 U/ml SUPERase-In, 4 C; UNK is unkempt and MSI1 is Musashi-1; names of the RNAs are library labels; protein concentration not given here; high values mean tight binding.
Regarding B1, the binding signal amounted to 2.5 enrichment R.

On to B2, for which the binding signal came out at 0.506 enrichment R.

Regarding B3, the binding signal is 1.03 enrichment R.

B4 registered a binding signal of 0.82 enrichment R.

For B5, the binding signal came out at 0.89 enrichment R.

The molecule B6 gave a binding signal of 1.31 enrichment R.

Take B7: the binding signal was 1.26 enrichment R.

For B8, the binding signal stood at 1.07 enrichment R.

The molecule B9 gave a binding signal of 0.746 enrichment R.

Molecule B10 gave a binding signal of 0.746 enrichment R.

For B11, the binding signal stood at 0.448 enrichment R.

In turn, B12 gave a binding signal of 0.745 enrichment R.

Molecule B13 had a binding signal of 0.739 enrichment R.

Regarding B14, the binding signal was 1.14 enrichment R.

For B15, the binding signal turned out to be 0.957 enrichment R.

Regarding B16, the binding signal was 0.952 enrichment R.

Turning to B17, the binding signal was 0.847 enrichment R.

The molecule B18 returned a binding signal of 0.488 enrichment R.

Take B19: the binding signal came out at 0.592 enrichment R.

On to B20, for which the binding signal is 0.932 enrichment R.

For the molecule B21, the binding signal was found to be 1.69 enrichment R.

In turn, B22 gave a binding signal of 0.953 enrichment R.
